Reference: the supplement of paper PMC11417369
Some of the results follow.

These sequences were tested on PF3D7_0420300 AP2 domain 1 (GST-tagged) (assay: gcPBM binding intensity (ln(normalized median fluorescence intensity)); higher = stronger DNA binding).
Procedure, shortened: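 Alexa488 anti-GST antibody, scanned at 488 nm, detected GST-tagged P. falciparum DNA-binding domains that had been expressed in E. coli and incubated for 1 h on an Agilent 4 × 180k array. The array carried primer-extended double-stranded 36-bp intergenic genomic probes and negative controls. Binding intensity is the highest Masliner-normalised natural-log median intensity across replicate spots of either orientation of each probe.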
For “AAAATATATAAATATACATGCATAATTAATAGTATA [TGCATGCA_site804]”, the “gcPBM binding intensity (ln)” value was 9.33. AAAATAATTTTATAGTTGCACTATATCGTATACAAT was tested, and the “gcPBM binding intensity (ln)” value was 9.14. For “ATATATTTTATACATACACACATATATATATTTTTT [CACACA_site3940]”, the “gcPBM binding intensity (ln)” value was 9.66. With “TGATTAAATCAAGAAAGTACAAAATGAAATATATAA [XGTACX_site4319]” the “gcPBM binding intensity (ln)” value was 9.18. For “TAAAGTGTAAAATTCACACACATATAAATAAATATA [CACACA_site6765]”, the “gcPBM binding intensity (ln)” value was 9.49. With “AAAACAAACATTACACGTACAAAACAAGTTATAGAC [XGTACX_site6320]” the “gcPBM binding intensity (ln)” value was 9.92. With “TTTTTGATATTAAAGGGTACATTATTTACAAAAAAA [XGTACX_site5284]” the “gcPBM binding intensity (ln)” value was 8.74. For “CTGCCTTCCATACCCACACACTTCCCATATATTTTA [CACACA_site5491]”, the “gcPBM binding intensity (ln)” value was 10.1. With “ATGCTTTTTTATAAAAGTACATAAAGTTTTTACACT [XGTACX_site7307]” the “gcPBM binding intensity (ln)” value was 8.97. For “ATTCTTTTATTTAGTAGTACATTTGTATTTTATTCA [XGTACX_site5790]”, the “gcPBM binding intensity (ln)” value was 9.46. With “GATCCTGGTTCTTGTGGTACTTGTTCATTTGTTATA [XGTACX_site7164]” the “gcPBM binding intensity (ln)” value was 9.95. “TAAACATTTTTAATTTTGTAAAATTTTAAATAAAAA [XGTACX_negctrl_site612]” was tested, and the “gcPBM binding intensity (ln)” value was 8.56. For “TTTTTTATTGTGAAACTGATATTATATTTTTTATAA [GTGCAC_negctrl_site559]”, the “gcPBM binding intensity (ln)” value was 9.02. “ACAAACAAAGAAAGAACACACATACACAAGATACCT [CACACA_site7353]” was tested, and the “gcPBM binding intensity (ln)” value was 9.97. With “TGAATATTTTATGATTGTACATATTATAATAAACAT [XGTACX_site6113]” the “gcPBM binding intensity (ln)” value was 9.22. “TATTATATATATAGGTGTACGCATTTGTCCTTTATA [XGTACX_site1385]” was tested, and the “gcPBM binding intensity (ln)” value was 9.35. “AAACTTATGTTTACATGTACAGAACTTTATATTATG [XGTACX_site4843]” was tested, and the “gcPBM binding intensity (ln)” value was 9.18. With “TCGAACATTAACATAACACACATATAGATTTATATA [CACACA_site7380]” the “gcPBM binding intensity (ln)” value was 9.44. In the case of “TTATTCTTTAACTAAAATTATATATATATATTATAC [CACACA_negctrl_site1597]”, the “gcPBM binding intensity (ln)” value is reported as 9.15. “TTGTATGCTTCCCGACTACATTATGCCATAAATGTA [TGCATGCA_negctrl_site136]” was tested, and the “gcPBM binding intensity (ln)” value was 9.13. In the case of “ATTGTAATAAATTGTAGTACATGTAAGGTTTTATTT [XGTACX_site1005]”, the “gcPBM binding intensity (ln)” value is reported as 9.46. In the case of “ATAACTTATTTTTAAAGTACATTATTATATATATAT [XGTACX_site1620]”, the “gcPBM binding intensity (ln)” value is reported as 9.19. For “TTAAGAATATTTTCATGTACTCATTTTTTTTGTTAT [XGTACX_site1814]”, the “gcPBM binding intensity (ln)” value was 9.4. “AATAAAAATATATCCACACACATATATAAATATGTA [CACACA_site6415]” was tested, and the “gcPBM binding intensity (ln)” value was 9.68. In the case of “ATTACATATGTGAGTTGTACTATAAATATATAATAT [XGTACX_site3718]”, the “gcPBM binding intensity (ln)” value is reported as 9.25. In the case of “ACATCATAGAAAAATTGATATATATATATATATATA [CACACA_negctrl_site130]”, the “gcPBM binding intensity (ln)” value is reported as 8.95. With “TCCACAAAGCATGTAACACACAACATATAAGACATA [CACACA_site972]” the “gcPBM binding intensity (ln)” value was 9.62. For “AACCACATACCTATAACACACATATACAATATAGAT [CACACA_site7023]”, the “gcPBM binding intensity (ln)” value was 9.82. With “TATATATTTTATTTATGTACGAAAATAAATTAAATT [XGTACX_site3628]” the “gcPBM binding intensity (ln)” value was 8.93. In the case of “TTAAAAAAATTAATATGTACATATATTTATATATAT [XGTACX_site5317]”, the “gcPBM binding intensity (ln)” value is reported as 8.91. “TATTAAAAAGAGGTGACACACACATATAAATCTAAA [CACACA_site9243]” was tested, and the “gcPBM binding intensity (ln)” value was 9.68. In the case of “AATATTTTAATGCACACACACAAAAAAAAAAAAAAA [CACACA_site7374]”, the “gcPBM binding intensity (ln)” value is reported as 9.49. In the case of “AATCCTTTACGACACACACACAAAAAAAAAAAAAAA [CACACA_site6449]”, the “gcPBM binding intensity (ln)” value is reported as 9.63. With “TTATTAAAACAAAATGTACACACATATAATTTAATG [CACACA_site8193]” the “gcPBM binding intensity (ln)” value was 9.48. In the case of “TTTTTCTTTCTTTCTTTTTTAATATTACAAATGTAT [XGTACX_negctrl_site267]”, the “gcPBM binding intensity (ln)” value is reported as 9.2. For “TTCAATGCATGTCCATGTACATATAAAAAAAAATAC [XGTACX_site1597]”, the “gcPBM binding intensity (ln)” value was 9.08. For “TGTTGGCAGGTGAATGCATGCATATAAGTCTATCTG [TGCATGCA_site781]”, the “gcPBM binding intensity (ln)” value was 9.07. With “CACCCTTTACACAAGGTGCATACTTTATTATATTTT [GTGCAC_site9778]” the “gcPBM binding intensity (ln)” value was 9.46. For “AAAGTAGAATATCCCCTACACACCCAAATAATTTAC [CACACA_site1255]”, the “gcPBM binding intensity (ln)” value was 9.85. With “TTTTGTTTCTATATAAGATGGAAATATAAACTTGTA [CACACA_negctrl_site82]” the “gcPBM binding intensity (ln)” value was 8.85. In the case of “TTAAGATCCTAAAAAACACACAATTGTGAATAATAA [CACACA_site3872]”, the “gcPBM binding intensity (ln)” value is reported as 9.31. In the case of “GTAAGTTGTGCATTCACACACATATATATATATATA [CACACA_site3303]”, the “gcPBM binding intensity (ln)” value is reported as 9.58. For “TATATATATATATATACATGCATATATATAATATAT [TGCATGCA_site763]”, the “gcPBM binding intensity (ln)” value was 9.03. With “AAATATATATAAATGAGTACTTATGGTAACATATAT [XGTACX_site6362]” the “gcPBM binding intensity (ln)” value was 9.4. For “AGAGCATAATAAAACACACACATACATACCTATATA [CACACA_site6566]”, the “gcPBM binding intensity (ln)” value was 9.95. “ATAAATAATTATAATTGTACACATATATATATATAC [XGTACX_site3998]” was tested, and the “gcPBM binding intensity (ln)” value was 9.26. “TTCCACATTTTACAGACACACACAATTTATATTACG [CACACA_site8572]” was tested, and the “gcPBM binding intensity (ln)” value was 9.63. In the case of “AAAAAATATTGAAGTACACACATTATGAACTTTTTT [CACACA_site1733]”, the “gcPBM binding intensity (ln)” value is reported as 9.34. In the case of “TGTTTTTATAATATTAGTACATAATATACATAATTC [XGTACX_site2787]”, the “gcPBM binding intensity (ln)” value is reported as 9.13. “AATAAATTAATTTTGGGTACATATATATATATATAT [XGTACX_site3807]” was tested, and the “gcPBM binding intensity (ln)” value was 9.21. For “GAAGAATAAATATGCACACATGCATATATTTTTACA [CACACA_site3459]”, the “gcPBM binding intensity (ln)” value was 9.21. For “AGAAAAAAAAAAAAAAAAAAAAAATTGAATATATAT [TGCATGCA_negctrl_site55]”, the “gcPBM binding intensity (ln)” value was 9.05. With “TTTATTATCTTATTCACACACATATATATATATATA [CACACA_site2869]” the “gcPBM binding intensity (ln)” value was 9.62. In the case of “ATATATTTTTACCATACACACATATAACAAATATAT [CACACA_site7706]”, the “gcPBM binding intensity (ln)” value is reported as 9.68. With “TACAATTCGTAATACACACACATATATATATATATT [CACACA_site3751]” the “gcPBM binding intensity (ln)” value was 9.67. In the case of “TAAAAAAATTTAACATGTACAAATATTGAAAAGGAC [XGTACX_site7608]”, the “gcPBM binding intensity (ln)” value is reported as 9.82.
